Measurements published in the supplement of paper PMC11417369.
This is one part of the list.

The sequences below were run on PfHDP1 homeodomain (GST-tagged) (assay: gcPBM binding intensity (ln(normalized median fluorescence intensity)); higher = stronger DNA binding).
How it was run: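 Binding intensity is defined as the maximum Masliner-normalised natural-log median intensity across replicate spots for either probe orientation. It was measured on an Agilent 4 × 180k array of primer-extended double-stranded 36-bp intergenic genomic probes and negative controls, to which GST-tagged P. falciparum DNA-binding domains made in E. coli were applied for 1 h in 1× PBS with 1% milk, 0.2 mg/ml BSA, 0.5% salmon testes DNA and 0.03% Triton X-100. Detection was by Alexa488 anti-GST antibody and scanning at 488 nm.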

Row | Sequence | gcPBM binding intensity (ln)
1 | TTAATAAATATCAATACACACACACTAATGTGAATA [CACACA_site9254] | 6.3
2 | TTTTTGAGTGCACATACACACAGACATACATTTAAA [CACACA_site5813] | 10.4
3 | CATTATGTACAAAAAGTGCAATATATATTAACACTG | 8.49
4 | TTATATATATATATATATATATATATATATATAAAT [GTGCAC_negctrl_site126] | 7.57
5 | AACAAAATAAGAAAACGTACAAATGTTTCAAATTCT [XGTACX_site1544] | 6.32
6 | TAAGGAAAAAAAATATGTACTTATAGTTCCTTCTTT [XGTACX_site2202] | 5.89
7 | ATTTGTAATATTAAATGTACAGGTAAGAAATATCAG [XGTACX_site1562] | 7.25
8 | ATTACAACATTTTATACACACGTGATTATTAATTTT [CACACA_site5581] | 6.82
9 | TTCAATATACATATGTGTACTAAAATAAATAGAAAA [XGTACX_site5708] | 6.8
10 | GGATTCAAAAAAAAAAATAAAAGTAAATAATAAATA [TGCATGCA_negctrl_site348] | 6.18
11 | TAAATATATTTATACACACACACCAAAGCAATAGAT [CACACA_site7393] | 7.23
12 | TATATTTCAGGGGGGAGTACAAATTTTTTTATATAA [XGTACX_site1600] | 9.22
13 | AAGAACAGAACGTACACACACATATTTATATTTATA [CACACA_site7594] | 6.65
14 | TTTATGAAGTAAAAATATAAATTCACAAAGTTAAAA [CACACA_negctrl_site1476] | 6
15 | TATGTATATTCTTTCAGTACACATAATGTTGTCATA [XGTACX_site8845] | 6.65
16 | TTAATATATATATATATATATATATTTTTATTTTTT [CACACA_negctrl_site763] | 6.81
17 | TGTATTAACAAAAAGGTGCGGATATATATAAAAAAT [GTGCAC_site9473] | 7.59
18 | AAAATGTTATTGGAAAGTACAAAAAAAATTATATAA [XGTACX_site4074] | 6.47
19 | CATATATAGATATATACACACATATATAAATAAATA [CACACA_site6759] | 6.62
20 | ATAAAACGTACAATGGTGCATATAAATAATATATAT [GTGCAC_site9960] | 10.3
21 | AAAAAATATTTTTACAGTACATATATATAAAATGTT [XGTACX_site3215] | 6.5
22 | TCATTTCACGGACACACACACACAATATATTTCCTT [CACACA_site6023] | 7.05
23 | TAACAAAGGAAAGATATACACACGTATGCATGATAA [CACACA_site2520] | 8.09

Row | Sequence | gcPBM binding intensity (ln)
24 | CATTAATATATATATACATGCACGTTTTAAAAAAAA [TGCATGCA_site875] | 9.59
25 | ATGGGAATATAATTATGTACATATAAAAATTATAAA [XGTACX_site5336] | 6.38
26 | TAATTATGCAGACACACACACACACGCAACTAAAAA [CACACA_site7253] | 7.07
27 | TAAAAAATATAAACTGCACACACAAAAAAAAAAGAG [CACACA_site8379] | 7.66
28 | AATTTAAAATAATATTGTACTTAGATATAAATATGA [XGTACX_site4198] | 6.11
29 | TAATATCTAAAAAATATATTTTTTATTTTTTATTAA [CACACA_negctrl_site510] | 6.15
30 | ATATCATTAAAAGGATGTACATATGTGTATACAATA [XGTACX_site871] | 7.36
31 | TACATACATACATACACACACACATATATATACATA [CACACA_site853] | 7.59
32 | ATGGTACACAAATATACATGCAATAATAAAAAAAAA [TGCATGCA_site879] | 6.71
33 | TGCAGTCTGGAGAAAAGTACATAGTATCTGGTAACC [XGTACX_site2019] | 6.09
34 | ATATATATATATTTATGTACTTAATAATTTATTCAC [XGTACX_site7301] | 8.53
35 | TTTTTTTTTTAATTCGCACACTGTCTTCATACAATT [CACACA_site1379] | 7.06
36 | TTTTTATTACATAATTAAAAAAAATAATAAAATAAA [XGTACX_negctrl_site249] | 6.03
37 | AAAATACATAAATGTTCACACATTAAAAAGCAGAAG [CACACA_site5346] | 6.67
38 | TATGTCAGATGAAAGGGTACATAATATAATATATTT [XGTACX_site8062] | 6.09
39 | TTTATAAAGAAACACACACACATGTGAACATAAAAA [CACACA_site1908] | 6.86
40 | CACACCCACCAACACACACACACACCCACCCATATA [CACACA_site366] | 6.72
41 | CATAACATAAAATAGGTGCACAAAAATTGTAATTGA | 10
42 | TTATAAATGAATAAATGTACAAAATATATATATATA [XGTACX_site8829] | 8.94
43 | ATTTTTATTTGTTACGCATGCATAAAAGTGCATACT [TGCATGCA_site547] | 8.53
44 | TTCAGTGTATACATATGTACATATATATATATATAT [XGTACX_site1621] | 9.41
45 | TTGTAATATATGTATTGTACGCATATAACAATTATT [XGTACX_site3652] | 6.32
46 | GTGTAAATAAGGATATATAACAATCAACAAAACATA [CACACA_negctrl_site1759] | 7

Row | Sequence | gcPBM binding intensity (ln)
47 | TGTATGAAATATATTACACACATATATAATATATAT [CACACA_site793] | 6.65
48 | ATACACAAAATTATTAAATCAATAAATATATGGTTT [CACACA_negctrl_site353] | 6.22
49 | ATATTTTTCAAACATCGTACATTATGAGTTAAAATT [XGTACX_site584] | 6.29
50 | AATAAATACACATACACACACGACGCTAGTATATGT [CACACA_site6627] | 7.18
51 | AGAATAAATATGTGGTGTTATAGTATTAATGTTAAT [TGCATGCA_negctrl_site62] | 6.32
52 | ATAAATATACCAATCGGTACACATTTATACAAACAA [XGTACX_site7484] | 6.71
53 | GCTATAAATATAATCACACATAAATATATAATATAT [CACACA_site5144] | 6.29
54 | AGGAGGATAGTTCACAGTACCCAGGAAATCTGCGGA [XGTACX_site4928] | 5.98
55 | TATGCAATAAAATATACACACAATATACTTATATAT [CACACA_site7691] | 6.84
56 | TTTATTTTCCAAAGGGTGCACATAGTTAAAACGATA [GTGCAC_site9855] | 9.64
57 | TTAATTTTTTTTTAAACACACATTTTTTTATTTAAG [CACACA_site2738] | 6.25
58 | TGAATAAAATATTATACACACATATGTATATAACAT [CACACA_site974] | 6.45
59 | GTTATAAATAATAAATAAATAATCAAATGAAGAATG [CACACA_negctrl_site653] | 6.45
60 | TATTAATTTTTTTTTTTTTTTTTTTTTTTTTTTTTT [CACACA_negctrl_site1329] | 7.43
61 | TCCTTATTTCATATTTTTAAATAATACAAAAAAAAA [CACACA_negctrl_site773] | 6.17
62 | GAATATTAAATATTATCACACACATAATTATTTCCA [CACACA_site8730] | 6.49
63 | AAATAAAAAAAAGCCTGTACATGTTCATAAATTTTT [XGTACX_site7925] | 6.37
64 | ATATATATTTATAATCGTACGTACCTAACAATACAA [XGTACX_site4510] | 7.04
65 | TTCTATTTATATGTGGGTACTAATTTTTTTTCTTTT [XGTACX_site7104] | 6.52
66 | TTTTATATGTTATATACACACATATAAATAAATATA [CACACA_site7418] | 6.69
67 | AAAAAAAAATTAAAATGTACACATAAAAAAAAAAAA [XGTACX_site794] | 6.14
68 | AAAAATAAATAAATATGTACATATATACATATATAT [XGTACX_site5892] | 6.42
69 | TATATCATATAAAACCGTACATACATACTTAATTGT [XGTACX_site6822] | 6.33

Row | Sequence | gcPBM binding intensity (ln)
70 | ATCTATATTCATAATACACACATTCTGTAGCATTAT [CACACA_site7058] | 6.92
71 | TGATTAATTTTTAAATGTACTTAAAAATATACTTAT [XGTACX_site2872] | 6.25
72 | TAACATATGGGACACACATGCAACTGTTATATGTCC [TGCATGCA_site959] | 6.75
73 | AGAAAACATATGTTTTGTACTTAAGAAAAAAAAAAA [XGTACX_site4231] | 6.58
74 | AACAGGTCATAATTTACACACTATATATTTTATTAT [CACACA_site670] | 7.03
75 | TATAAAATTTTTAAAAGTACATATTTTACATAATAC [XGTACX_site2193] | 6.11
76 | TTTTTATCAACAAATAATACCATAACTCATATTTAT [CACACA_negctrl_site740] | 6.29
77 | ATTATTCCATATTATTGTACTTTAATTTTTTAAACC [XGTACX_site2960] | 6.67
78 | ATATATAATATATATTGTACAGGTATGTCTATAAAT [XGTACX_site2243] | 6.62
79 | GAGAGGTATCAAAAATGTACACATATATATATGTAT [XGTACX_site5611] | 6.35
80 | TTTTTTCTTTATTATGGTACGTATAAAAAAATTATA [XGTACX_site3433] | 6.35
81 | AAAAAAAAAACACGCGCACACACACCCACCCACCCA [CACACA_site8689] | 6.97
82 | ACTAATAAAGGTGTAATACACACTATAAAAAGGAAT [CACACA_site1124] | 7.21
83 | TGTTGATTTATCCTGTGTACGGATATATATCTTTCA [XGTACX_site7826] | 6.23
84 | TAAAGAATATTATAAACACACACTTTATAAAGAATT [CACACA_site114] | 6.46
85 | GTAATTATACATATTACACACTCTCTTGATCTTTTT [CACACA_site7756] | 6.41
86 | TATATAAAGAAACACACACACACCTTATAATTATTA [CACACA_site4062] | 6.9
87 | TTTATCTAAATATGTGTGCACTCGTTAATTTTTTTT | 10.8
88 | TATATAAACCCACCTACACACACAACGTAAATGCAT [CACACA_site8702] | 7.06
89 | ATTATTATATTCAAATGTACTTAATAAACATTTTAA [XGTACX_site3023] | 6.39
